Results: PubChem BioAssay AID1345082 (National Center for Advancing Translational Sciences (NCATS), 2018)
Hit rate of the full screen: of about 94,000 compounds, about 4,000 (4.3%) were called active. The inconclusive results got no clear call from the source; some entries with a clear call stand among them for comparison. Calls follow the shape of the dose curve; as a rule, active = well fitted inhibition curve with a large enough effect; inconclusive = small, poorly fitted or top-dose-only effect; inactive = no such curve, though single readings can be large or run the other way. Potencies beside an inconclusive call are fits to weak or partial responses and may not hold up.

Assay: Cytotoxic Profiling in NIH 3T3 Cell Line of Diverse Libraries Using Quantitative High-Throughput Screening; also: nearly all actives have a fitted effect of over 55% in size
Details: NIH 3T3 viability, CellTiter-Glo ATP luminescence, 48-72 h; activity change, negative = cytotoxicity: at 96.7 µM (top of the series) unless noted; series mostly up to 96.7 µM
Outline: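 Mouse fibroblast NIH 3T3 cells, 400 per well, received compound via pintool and were incubated for 48 or 72 hr prior to CellTiter-Glo ATP luminescence measurement.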
% is scaled to controls: 0 for no effect and ±100 for the full control effect; potency is read from the fitted curve at half-maximal effect; tags tell the direction and shape of the fitted curve.

Structure (SMILES) | activity change, negative = cytotoxicity | outcome | Potency
CCC1Oc2ccc(NC(=O)c3ccc4c(c3)OCO4)cc2CN(Cc2ccccc2)C1=O (stereo not drawn) | inactive: -26.5% | – | –
COc1ccc(-c2ccccc2C(=O)N(C)CC#N)nn1 | – | inactive [at 138 µM] | –
COc1ccc(CN2C(=O)[C@H](OC)[C@@H]2C2=CCN(C(=O)c3cccc(C#N)c3)CC2)cc1 | inactive: -35.5% | – | –
O=C(NCc1cccc(Cl)c1)c1ccc2nnc(Cc3ccco3)n2c1 | – | – | inconclusive: 39.8 µM [inhibitor, partial curve]
Cc1ccc(-n2cc(CN(C)C(C)C(=O)N(C)C)c(-c3cccc(C)c3)n2)cc1 (stereo not drawn) | – | – | inconclusive: 56.2 µM [inhibitor, partial curve, poor fit]
Cn1nc(C2CC2)n(C2CCN(Cc3cn[nH]c3-c3ccccc3)CC2)c1=O | inactive: -29% | – | –
COCCOC1CCOC2(CCN(S(=O)(=O)c3cccc(OC)c3)CC2)C1 (stereo not drawn) | inactive: -2.2% | – | –
COC1CN(c2cccc(F)c2)C12CCN(C(=O)c1cnc(C)cn1)CC2 (stereo not drawn) | inactive: -13.9% | – | –
CN(CC#N)C(=O)[C@H]1CN(Cc2ccccc2)C[C@H]1C(=O)O | inactive: -15.6% | – | –
COc1ccc(Nc2n[nH]c(C(O)c3cccc(C(F)(F)F)c3)n2)cc1OC (stereo not drawn) | inactive: -21.6% [at 138 µM] | – | –
COc1cccc(CNC(=O)Cn2ccn3nc(-c4ccc(F)cc4)c(CO)c3c2=O)c1OC | – | – | inconclusive: 50.1 µM [inhibitor, partial curve, poor fit]
CN(C)c1ccc(C(=O)N2CCC3(CC2)N=C(c2cccc(Br)c2)NO3)cc1 | – | – | inconclusive: 50.1 µM [inhibitor, single point]
CC(C)(C)C(=O)N1CCC[C@@H]1C(=O)N1CCCC(c2nc3ccncc3[nH]2)C1 (stereo partly drawn) | inactive: -14% | – | –
CN1C(=O)c2cccn2CC1CNC(=O)c1cccn1C (stereo not drawn) | – | inactive | –
CC1(CNC(=O)c2ccc(Cl)s2)CCOCC1 | inactive: -4.32% | – | –
CCn1c(C2CCCN(C(=O)c3sc(C(C)C)nc3C)C2)nn(C)c1=O (stereo not drawn) | – | – | inconclusive: 25.1 µM [inhibitor, partial curve]
O=C(c1ccc2nnc(Cc3ccc(Cl)cc3)n2c1)N1CCOCC1 | inactive: -17.3% | – | –
CCCN(CC1CC1)C(=O)[C@@H]1CN(S(=O)(=O)CC)C[C@H]1c1ccncc1 | – | – | inconclusive: 50.1 µM [inhibitor, partial curve, poor fit]
Cc1ccc(-c2noc([C@@H]3Cc4nc[nH]c4CN3Cc3ccc(F)cc3)n2)cc1 | – | – | active: 35.5 µM
COC[C@H]1C[C@@H](NS(=O)(=O)c2cccc(C(F)(F)F)c2)[C@H](O)[C@@H]1O | inactive: -3.91% [at 138 µM] | – | –
O=C(CC1CCCCN(Cc2ccccc2)C1=O)Nc1ccccc1F (stereo not drawn) | – | – | inconclusive: 44.7 µM [inhibitor, partial curve, poor fit]
O=C1CC2(CCN(S(=O)(=O)c3ccccc3)CC2)Oc2ccccc21 | inactive: -20.6% | – | –
CC(C)Cc1cc(C(=O)N2CCc3[nH]nc(-c4ccccc4F)c3C2)n(C)n1 | – | – | inconclusive: 50.1 µM [inhibitor, partial curve, poor fit]

Structure (SMILES) | activity change, negative = cytotoxicity | outcome | Potency
CC(C)c1noc(-c2cn(C3CCN(C(=O)c4ccc5c(c4)OCO5)C3)nn2)n1 (stereo not drawn) | – | – | inconclusive: 44.7 µM [inhibitor, partial curve, poor fit]
O=C1CCN(C(=O)c2ccco2)CCCCCCN1 | inactive: -15.6% | – | –
O=C(NCC(F)(F)F)c1nc2sccn2c1-c1ccc(F)cc1 | inactive: -9.8% | – | –
CC(C)CNC(=O)C(C)(C)Oc1nn(CC2CC2)c2ccc(CN3CCCC3)cc12 | – | – | inconclusive: 112 µM [inhibitor, single point]
COc1ncccc1Nc1cnc2ccc(N(C)Cc3ccc(F)cc3)nn12 | – | – | inconclusive: 50.1 µM [inhibitor, partial curve, poor fit]
CCCNC(=O)c1ccc2c(c1)CC(=O)N2Cc1cccc(F)c1 | – | – | inconclusive: 44.7 µM [inhibitor, partial curve, poor fit]
CNC(=O)c1cc(C2CC2)nc2onc(C3CCN(C(=O)C4CC4)CC3)c12 | inactive: -20.9% | – | –
O=C(c1cccc(Cl)c1)N1CCN(c2cc(-c3ccc(Cl)cc3)[nH]n2)CC1 | – | – | active: 35.5 µM
COc1ccccc1-c1ccc(C(=O)N2CCC(NC(=O)c3ccc(C)cc3)CC2)cc1 | – | – | inconclusive: 50.1 µM [inhibitor, partial curve, poor fit]
CC(C)(C)C(=O)N1CC[C@@H](CC(=O)O)[C@@H](CC2=NCCc3ccc(C(C)(C)C)cc32)C1 | – | – | active: 100 µM
CCNc1nccc(N2CCC(CC(=O)N(CC)CC)CC2)n1 | – | – | inconclusive: 44.7 µM [inhibitor, partial curve]
CCCCn1c(=O)c(C(=O)N2CCN(C(=O)NC3CCCC3)CC2)nc2cccnc21 | inactive: -17.4% | – | –
O=C(NCc1cccs1)C1CCCN(Cc2cccc(-c3ccc(F)cc3F)c2)C1 (stereo not drawn) | – | – | inconclusive: 39.8 µM [inhibitor, partial curve, poor fit]
O=C(c1ccccc1Cl)N1CCCN(c2cc(-c3ccc(F)cc3)[nH]n2)CC1 | – | – | inconclusive: 44.7 µM [inhibitor, partial curve, poor fit]
Cn1ncc2c(C(=O)NCc3cccc(Cl)c3)cc(C(C)(C)C)nc21 | – | – | inconclusive: 50.1 µM [inhibitor, partial curve, poor fit]
O=C(c1nc(-c2ccsc2)c2ccccn12)N1CCOCC1 | – | – | inconclusive: 89.1 µM [inhibitor, partial curve, poor fit]
c1cncc(CN2CCC(N3CC(OCC4CC4)C34CCCCC4)CC2)c1 (stereo not drawn) | – | – | inconclusive: 22.4 µM [inhibitor, full curve]
CCCCOc1c(CNC(C)c2ncccc2C)cccc1OC (stereo not drawn) | – | – | active: 28.2 µM
O=C(NC1CCCN(c2ccc3nnc(-c4ccccc4)n3n2)C1)c1cccnc1 (stereo not drawn) | – | – | inconclusive: 50.1 µM [inhibitor, partial curve, poor fit]
CCCCNC(=O)Cc1csc2nc(C)c(-c3cc(C)n(-c4cc(Cl)ccc4C)n3)c(=O)n12 | – | – | inconclusive: 44.7 µM [inhibitor, partial curve, poor fit]
CN(Cc1cccnc1)c1nc2c(c(=O)[nH]1)CCN(Cc1cc(F)ccc1F)CC2 | – | – | inconclusive: 39.8 µM [inhibitor, partial curve, poor fit]
COC(=O)[C@@H]1Cc2c([nH]c3ccccc23)[C@H]2C[C@@H](NCCN3CCOCC3)C[C@@H](c3ccc(F)cc3)N21 | – | – | inconclusive: 28.2 µM [inhibitor, full curve, poor fit]
COc1ccccc1C(=O)N1CCCn2nc(C)c(-c3ccccc3Oc3ccccc3)c21 | – | – | inconclusive: 100 µM [inhibitor, partial curve]

Structure (SMILES) | activity change, negative = cytotoxicity | outcome | Potency
O=C(c1ccc(C(F)(F)F)cc1)N1CCC2(CC1)C(=NC1CCCCC1)NC(=O)N2c1cccnc1 | – | – | inconclusive: 50.1 µM [inhibitor, partial curve, poor fit]
O=C1Nc2ccccc2CC12CN(CC1CCCC1)C2 | inactive: -3.36% [at 138 µM] | – | –
O=C(c1ccc(Cl)cc1)N1CCN(c2ccc3nnc(-c4ccccc4)n3n2)CC1 | – | – | active: 44.7 µM
CN1CCC(N2CCN(C(=O)c3cc4cn(C5CC5)cc4s3)CC2)CC1 | – | inactive | –
C[C@@H]1C(=O)O[C@H]2[C@H]1CC[C@@]1(C)Cc3sc(NS(=O)(=O)c4ccc(F)cc4)nc3[C@@H](C)[C@H]21 | – | – | inconclusive: 89.1 µM [inhibitor, single point]
O=C(NC1CCCc2c1[nH]c1ccc(F)cc21)c1n[nH]c2c1CCC2 (stereo not drawn) | – | – | active: 35.5 µM
COc1ccc(NC(=O)c2c(OC)cc(=O)n3c2CCCC3)c(OC)c1 | inactive: -11.8% | – | –
Cc1cccc(-c2ccccc2C(=O)N2CCCC(CO)(Cc3ccccc3F)C2)c1 (stereo not drawn) | – | – | active: 79.4 µM
CCN(CC1CCN(C2CCN(C)CC2)CC1)C(=O)c1ccc(-c2ccccc2)cc1 | – | – | active: 28.2 µM
COc1ccc(NC(=O)[C@@H]2C[C@H](c3ccc(F)cc3)N(Cc3csc(C)n3)C2)c(C)c1 | – | – | active: 70.8 µM
O=C(C1CCCN(S(=O)(=O)N2CCCC2)C1)N1CCC(Cc2nncn2-c2ccccc2)CC1 (stereo not drawn) | inactive: -8.37% | – | –
COc1ncccc1-c1cnc2[nH]cc(CC(=O)Nc3cccnc3)c2c1 | – | – | inconclusive: 35.5 µM [inhibitor, partial curve]
COc1nc2nc(CCc3ccccc3)n(C)c2cc1-c1cncnc1 | – | – | inconclusive: 112 µM [inhibitor, single point]
Cc1nc2c(c(-c3ccc(Cl)cc3)n1)CCN(C(=O)Cc1cccc(Cl)c1)CC2 | – | – | inconclusive: 44.7 µM [inhibitor, partial curve, poor fit]
CC(C)Oc1ccc(CNC(=O)C2Cn3cccc3C(=O)N2Cc2ccccc2)cc1 (stereo not drawn) | – | – | inconclusive: 50.1 µM [inhibitor, partial curve, poor fit]
FC(F)(F)c1cccc(-c2ncc[nH]2)c1 | – | – | inconclusive: 70.8 µM [inhibitor, full curve]
CCS(=O)(=O)c1ccc2oc([C@H]3CCN(Cc4ccc(OC)cc4)C3)nc2c1 | – | – | inconclusive: 100 µM [inhibitor, partial curve, poor fit]
O=C1C[C@H]2CC[C@@H](CN1)N2Cc1ccc(OCc2ccccc2)cc1 | – | – | inconclusive: 79.4 µM [inhibitor, single point]
Cn1nccc1C(=O)N1CCC(c2noc(-c3ccccc3)n2)C1 (stereo not drawn) | – | – | inconclusive: 39.8 µM [inhibitor, partial curve]
CN(C)c1ccc(CN2CC[C@H](c3nc4ncccc4[nH]3)C2)cc1 | inactive: -9.68% [at 174 µM] | – | –
COc1ccc(-c2noc([C@@H]3CCCN3C(=O)Cc3ccc(C)cc3)n2)cc1OC | – | – | inconclusive: 44.7 µM [inhibitor, partial curve, poor fit]
COc1ccc(-n2ncc(-c3c(-c4ccccc4)ncn3CCCO)c2C)cc1 | – | – | inconclusive: 79.4 µM [inhibitor, single point]
